Measured values reported in the supplement of paper PMC8728848.
This is one part of the list.

How the values were obtained:
Assay in all cases: glycan array binding signal (z-score within array); higher = stronger binding
Conditions in all cases: glycan notation: IUPAC condensed, linker removed
[1] = molecular target: GalNAc(b1-4)GlcNAc(b1-2)Man
How it was run: (§1)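 Glycan array data came from 3228 arrays in the Consortium for Functional Glycomics database, and only arrays with an available protein sequence were kept. Glycan names were put into IUPAC-condensed notation, and columns mapping to the same glycan were averaged. The binding signal is a within-array Z-score, averaged across arrays of one protein sequence run at different concentrations or buffers and across linkers. A negative Z-score can be read as non-binding.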

[2] = molecular target: GalNAc(b1-4)GlcNAc(b1-2)Man(a1-3)[GalNAc(b1-4)GlcNAc(b1-2)Man(a1-6)]Man(b1-4)GlcNAc(b1-4)GlcNAc
How it was run: as §1

[3] = molecular target: GalNAc(b1-4)GlcNAc(b1-3)GalNAc(b1-4)GlcNAc
How it was run: as §1

GalNAc(b1-4)GlcNAc6S = molecular target: GalNAc(b1-4)GlcNAc6S
How it was run: as §1

GalNAc(b1-6)GalNAc = molecular target: GalNAc(b1-6)GalNAc
How it was run: as §1

GalNAc3S(b1-4)GlcNAc = molecular target: GalNAc3S(b1-4)GlcNAc
How it was run: as §1

GalNAc3S(b1-4)GlcNAc3S = molecular target: GalNAc3S(b1-4)GlcNAc3S
How it was run: as §1

[4] = molecular target: GalNAc3S(b1-4)[Fuc(a1-3)]GlcNAc
How it was run: as §1

GalNAc4S6S(b1-4)GlcNAc = molecular target: GalNAc4S6S(b1-4)GlcNAc
How it was run: as §1

GalNAc6S(b1-4)GlcNAc = molecular target: GalNAc6S(b1-4)GlcNAc
How it was run: as §1

Glc(a1-4)Glc = molecular target: Glc(a1-4)Glc
How it was run: as §1

[5] = molecular target: Glc(a1-4)Glc(a1-4)Glc(a1-4)Glc
How it was run: as §1

Glc(a1-6)Glc(a1-6)Glc = molecular target: Glc(a1-6)Glc(a1-6)Glc
How it was run: as §1

[6] = molecular target: Glc(a1-6)Glc(a1-6)Glc(a1-6)Glc
How it was run: as §1

Glc(b1-4)Glc = molecular target: Glc(b1-4)Glc
How it was run: as §1

Glc(b1-6)Glc = molecular target: Glc(b1-6)Glc
How it was run: as §1

GlcA(b1-3)Gal = molecular target: GlcA(b1-3)Gal
How it was run: as §1

GlcA(b1-3)GlcNAc = molecular target: GlcA(b1-3)GlcNAc
How it was run: as §1

GlcA(b1-6)Gal = molecular target: GlcA(b1-6)Gal
How it was run: as §1

[7] = molecular target: GlcA3S(b1-3)Gal(b1-4)GlcNAc(b1-2)Man
How it was run: as §1

[8] = molecular target: GlcA3S(b1-3)Gal(b1-4)GlcNAc(b1-3)Gal(b1-4)Glc
How it was run: as §1

[9] = molecular target: GlcNAc(a1-3)Gal(b1-4)GlcNAc
How it was run: as §1

[10] = molecular target: GlcNAc(a1-4)Gal(b1-3)GlcNAc
How it was run: as §1

[11] = molecular target: GlcNAc(a1-4)Gal(b1-4)GalNAc
How it was run: as §1

[12] = molecular target: GlcNAc(a1-4)Gal(b1-4)GlcNAc
How it was run: as §1

[13] = molecular target: GlcNAc(a1-4)Gal(b1-4)GlcNAc(b1-3)Gal(b1-4)Glc
How it was run: as §1

[14] = molecular target: GlcNAc(a1-4)Gal(b1-4)GlcNAc(b1-3)Gal(b1-4)GlcNAc
How it was run: as §1

[15] = molecular target: GlcNAc(a1-4)Gal(b1-4)GlcNAc(b1-3)Gal(b1-4)GlcNAc(b1-3)Gal(b1-4)GlcNAc
How it was run: as §1

[16] = molecular target: GlcNAc(a1-4)Gal(b1-4)GlcNAc(b1-3)Gal(b1-4)[Fuc(a1-3)]GlcNAc(b1-3)Gal(b1-4)[Fuc(a1-3)]GlcNAc
How it was run: as §1

[17] = molecular target: GlcNAc(a1-6)Gal(b1-4)GlcNAc
How it was run: as §1

B1: SialidaseA (Arthrobacter ureafaciens) (protein)
chain: MRSNSTSAPSLVRRAATGVLTCAVSIGLLAGLGLPAQAAPTPPNSPTLPPGSFSETNLAADRTAANFFYRIPALTYLGNDVVLAAWDGRPGSAADAPNPNSIVQRRSTDGGKTWGPVQVIAAGHVADASGPRYGYSDPSYIYDAEANKVFAFFVYSKDQGFGGSQFGNDDADRNVISSAVIESSDAGVTWSQPRLITSVTKPGTSKTNPAAGDVRSNFASSGEGIQLKYGPHKGRLIQQYAGDVRQADGSNKIQAYSVYSDDHGVTWHKGANVGDRMDENKTVELSDGRVLLNSRDNANRGYRKVAVSTDGGATYGPVSQDTELPDPANNGAIARMFPNAAQGSADAKKLIFTNANSKTGRENVSARVSCDDGETWPGVRTIRSGFSAYSTVTRLADGKFGVLYEGNYTDNMPFATFDDAWLNYVCAPLAVPAVNIAPSATQEVPVTVTNQEATTLSGATATVYTPSGWSATTVPVPDVAPGASVTVTVALTAPADASGPRSLNAAFTTADGRVSQFTFTATTPVAPQVGLTITGSAPARDVAANPYQAGDVLGYTLNVKSTANVAANSVPLTGTFDSGFLPPAAPNCRYNNLAAGASYNCTTAKHTITAADMERGYFVPEATFSITSTTTPSLTKTVQFTGAAVALRDGLISADISGARTDVGRDLATRPYAAGELVPYAFTVKNTSPFVEQVVPTAGNFSPFLPAGAGNCRYLSLPAGQSYECATPRHAVTAEEVEQGFFVPDTTWEVSAAGQSTRTYRINGGEVDLLVRDAALSATVVAEWKDADGDRFASAGDPVTFTYTVGNAGNVALTGLEAPDAGISLPFLAPGDTATATREHVLTAADVAGGSLAASAFEATARNGSKEVTATAEGQPLELKVQPAQPSKEPELTVQDLEDQTPPFDLGTAFKYRTGQKVSLAGLEYGQWYYVYLNKTGYRLGWMFPTTGDTVEFILPPEVRNGRDDVVVLDKDGRRVSFDRLQVTPKGEKI
[1]
  glycan array binding signal (z-score): -0.654
[2]
  glycan array binding signal (z-score): -0.743
[3]
  glycan array binding signal (z-score): -0.584
GalNAc(b1-4)GlcNAc6S
  glycan array binding signal (z-score): -0.463
GalNAc(b1-6)GalNAc
  glycan array binding signal (z-score): -0.312
GalNAc3S(b1-4)GlcNAc
  glycan array binding signal (z-score): -0.69
GalNAc3S(b1-4)GlcNAc3S
  glycan array binding signal (z-score): -0.623
[4]
  glycan array binding signal (z-score): -0.289
GalNAc4S6S(b1-4)GlcNAc
  glycan array binding signal (z-score): -0.506
GalNAc6S(b1-4)GlcNAc
  glycan array binding signal (z-score): -0.6
Glc(a1-4)Glc
  glycan array binding signal (z-score): -0.606
[5]
  glycan array binding signal (z-score): -0.284
Glc(a1-6)Glc(a1-6)Glc
  glycan array binding signal (z-score): -1.32
[6]
  glycan array binding signal (z-score): -0.604
Glc(b1-4)Glc
  glycan array binding signal (z-score): -0.607
Glc(b1-6)Glc
  glycan array binding signal (z-score): -0.959
GlcA(b1-3)Gal
  glycan array binding signal (z-score): -0.706
GlcA(b1-3)GlcNAc
  glycan array binding signal (z-score): -0.644
GlcA(b1-6)Gal
  glycan array binding signal (z-score): -0.705
[7]
  glycan array binding signal (z-score): -0.607
[8]
  glycan array binding signal (z-score): -0.761
[9]
  glycan array binding signal (z-score): -0.538
[10]
  glycan array binding signal (z-score): -0.545
[11]
  glycan array binding signal (z-score): -0.771
[12]
  glycan array binding signal (z-score): -0.665
[13]
  glycan array binding signal (z-score): -0.515
[14]
  glycan array binding signal (z-score): -0.399
[15]
  glycan array binding signal (z-score): -0.574
[16]
  glycan array binding signal (z-score): 0.494
[17]
  glycan array binding signal (z-score): -0.668
